Test results reported in the RNAGym collection of RNA variant scans (doi:10.1073/pnas.2313332121).
Variants at the floor of the assay are shown more often than the library holds them.

B1: TPR 5TU (parent)
chain: GGAUCUUCUCGAUCUAACAAAAAAGACAAAUCUGCCACAAAGCUUGAGAGCAUCUUCGGAUGCAGAGGCGGCAGCCUUCGGUGGCGCGAUAGCGCCAACGUUCUCAACUAUGACACGCAAAACGCGUGCUCCGUUGAAUGGAGUUUAUCAUG

Variants of: B1
Test: polymerase ribozyme fitness, log enrichment relative to wild type (log ratio); higher = more active; in vitro selection for triplet polymerase activity
How it was run: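 Input and output libraries were sequenced on Illumina after a single in vitro selection round, run in triplicate on PCR-built, transcribed mutant libraries of each subunit of a heterodimeric triplet polymerase ribozyme. Selection annealed libraries to a biotinylated primer, the partner subunit and triplets, incubated them frozen at −7 °C, then gel-excised extended constructs for streptavidin-bead capture and RT-PCR. Genotypes with ≥10 input reads and ≥1 read per output were kept. Fitness is the logarithm, taken in base 2, of genotype enrichment divided by wild-type enrichment, using inverse-variance-weighted replicate averages.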

Point of comparison: GGAUCUUCUCGAUCUAACAACAAAGACAAAUCUGCCUCAAAGCUUGAGAGCAUCUUCGGAUGCAGAGGCGGCAGCUUUCGGUGGCGUGAUAGCGCCAACGUUCUCAACUAUGACACGCAAAACGCGUGCUCCGUUGAAUGGAGUUUAUCAUG [A21C A37U C76U C87U], “polymerase ribozyme fitness (log ratio)” value -1.62. Against it:
- GGAUCUUCUCGAUCUAACAACGAAGACAAAUCUGCCACAAAGCUAGAGAGCAUCUUCCGAUGCAGAGGCGGCGGCCUUUGGUGGCGCGAUAGCGCCAACGUUCUCAACUAUGACACGCAAAACGCGUGCUCCGUUGAAUGGAGUUUAUCAUG [A21C A22G U45A G58C A73G C79U] — lower, ≤ -4.2
- GGAUCUUCUCGAUCUAACAACUAAGACAAAUCUGCCUCAAAGCUUGAGAGCAUCUUCGGAUGCAGAGUCGGCAGCCUUCGGUGGCGCGAUAGCUCCAACGUUCUCAACUAUGACACGCAAAACGCUAGCUCCGUUGAAUGGAGUUUAUCAUG [A21C A22U A37U G68U G94U G126U U127A] — lower, ≤ -4.2
- GGAUCUUCUCGAUCUAACAACUAAGACAAAUCUGACACAAAGCUUGAGAGCAUCUUCGGAUGCAGAGGCGGCAGCCUUCGGUGGCGCGAUAGCACCAACGUUCUCAACUAUGACACGCAAAACGCGUGCUCCGUUGAAUGGAGUUUGUCAUG [A21C A22U C35A G94A A147G] — lower, ≤ -4.2
- GGAUCUUCUCGAUCUAACAACACAGACAAAUCUGCCACAAAACUUGAGAGCAUCUUUGGAUGCAGAGGCGGCAGACUUCGGUGGAGCGAUAGCGCCAACGUUCUCGGCGAUGACACGCAAAACGCGUGCUCCGUUGAAUGGAGUUUAUCAUG [A21C A23C G42A C57U C75A C85A A106G A107G U109G] — lower, ≤ -4.2
- GGAUCUUCUCGAUCUAACAACAUAGACAAAUCUGCCCCAAAGCUUGAGAGCUGCUUCGGAUGCAGAGGCGGCAGCCUUCGGUGGCGCGAUAGCGCAAACGUUCUCAACUAUGACACGCAAAACGCGUGCUCCGUUGAAUGGAGUUUAUCAUU [A21C A23U A37C A52U U53G C96A G152U] — lower, ≤ -4.2
- GGAUCUUCUCGAUCUAACAACAUAGACAAAUCUGGCACAAAGCUUGAGAGCAUCUUCGCAUGCAGAGGCGGCAGCCUUCGGUGGCGCGAUGGCGCCAACGUUCGCAACUAUGACACGCAAAAGGCGUGCUCCGUUGAAUGGUGUUUAUCAUG [A21C A23U C35G G59C A91G U104G C123G A142U] — lower, ≤ -4.2
- GGAUCUUCUCGAUCUAACAACAACGACAAAUCUGCCACAAAGCUUGAGACCAUCUUCGGAUGCAGAGGCGGCAGCCUUCGGUGGCGCGAUAGCGCCAACGUUCUCAACUAUGACACGCAAAACGCGUGCUCCGUUGAAUGGAGUUUAUCAUG [A21C A24C G50C] — lower, ≤ -4.2
- GGAUCUUCUCGAUCUAACAACAAUGACAAAUAUGCCACAAAGCUUGAGAGCAUCUUCGGAUGCAGAGGCGGCAGCCUUCAGUGGCGCGAUAGUGACAACGUUCUCAACUAUGACACGCAAAACGCGUGCUCCGUUGAAUGGAGUUUAUCAUG [A21C A24U C32A G80A C93U C95A] — lower, ≤ -4.2
- GGAUCUUCUCGAUCUAACAACAAAGUCAAAUCUGCCAUAAAGCUUGAGAGCAUCUUCGGAUGCAGAGGCGGCAGCCUUCGGUGGCGGGAUAGCGCCAACGUUCUUAACUAUGACACGCAAAACGCGUGCUCCGUUGAAUGGAGUUUAUCAUG [A21C A26U C38U C87G C105U] — lower, ≤ -4.2
- GGAUCUUCUCGAUCUAACAACAAAGACUAUUCUGCCACAAAGCUUGGGAGCAUCUUCGGAUGCAGAGGCGGCAGCCUUCGGUGGCGCGAUAGCGCCAACGUUCUCAACUAUGACACGCAAAACGCGUGCUCCGUUGAAUGGAGUUUAUCAUG [A21C A28U A30U A47G] — lower, ≤ -4.2
- GGAUCUUCUCGAUCUAACAACAAAGACAUAUCUGCCACAUAGCUUGAGAGCAUCUUCGGAUGCAGAGGCGGCAGCCUUCGGUGGCGCGAUAACGCCAACGUUCUCCACUAUGACACGCAAAACGCGUGCUCCGUUGAAUGGAGUUUAUCAUG [A21C A29U A40U G92A A106C] — lower, ≤ -4.2
- GGAUCUUCUCGAUCUAACAACAAAGACAAAUCUGCCACAUAGCUUGAGAGCAUCUUCGGAUGCAGAGGCGGCAGCCUUCGGUGGCGCGAUAGAGCCAACGUUCUCAACUAUGACACGCAAAACGCGUGCUCCGUUGAAUGGAGUUUAUCAUG [A21C A40U C93A] — lower, -1.84
- GGAUCUUCUCGAUCUAACAACAAAGACAAAUCUGCCACAACGCUUGAGAGCAUCUUCGGGUGCAGAGGCGGCAGCGUUCGGUUGCGCGAUAGCGCCAACGUUAUCAACUAUGACACGCAAAACGCGUGCUCCGUUGAAUGCAGUUUAUCAUG [A21C A41C A60G C76G G83U C103A G141C] — lower, ≤ -4.2
- GGAUCUUCUCGAUCUAACAACAAAGACAAAUCUGCCACAAUGCUUGAGAGCAUCUUUGGAUGCAGAGGCGGCAGCCUUCGGUGGCGCGAUAGCGCCAACGUUCUCAACUAUGACACGCUAAACGCGUGCUCCGAUGAAUGGAGAUUAUCAUG [A21C A41U C57U A119U U134A U144A] — lower, -4.17
- GGAUCUUCUCGAUCUAACAACAAAGACAAAUCUGCCACAAUGCUUGAGAGCAUCUUCGGAUGCAGAGGCGGCAGCUUUCGGUGACGCGAUAGCGUCAACGUUCUCAACUAGGACACGCAAAACGCGUGCUCCGUUGAAUGGAGUUUAUCAUG [A21C A41U C76U G84A C95U U111G] — lower, -4.18
- GGAUCUUCUCGAUCUAACAACAAAGACAAAUCUGCCACAAAGCUUGCGAGCAUCUUCGGAUGCAGAGGCGGCAGCCUUCGGUGGGUCGAUAGCGCCAACGUUCUCAACUAUGACACGCAAAACGCGUGCUCCGUUGAAUGGAGUUUAUCGUG [A21C A47C C85G G86U A150G] — lower, ≤ -4.2
- GGAUCUUCUCGAUCUAACAACAAAGACAAAUCUGCCACAAAGCUUGUGAGCAUCUUCGGAUGCAGAGGCGGCAGCAUUCGGUGGCGCGAUAGGGCCAACGUUCUCAACUAUGACACGCAAAACGCGUGCUCCGUUGAAUAGAGUUUAUCAUG [A21C A47U C76A C93G G140A] — lower, ≤ -4.2
- GGAUCUUCUCGAUCUAACAACAAAGACAAAUCUGCCACAAAGCUUGUGAGCAUCGUGGGAUGCAGAGGCGGCAGCCGUCGGUGGCGCGAUAGCGCCAACGUUCUCAACUAUGACACGCAAAACGCGUGCUCCGUGGAAUGGAGAUUAUCAUU [A21C A47U U55G C57G U77G U135G U144A G152U] — lower, ≤ -4.2
